Our source for the switch fluorescence ratio values is the supplement of paper PMC10126150.

Sequences with one replicate were seen in a single cluster, so their values are uncertain.
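Note: ATP exposure 15 min at 22 °C before imaging.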

This data set has as its system ATP. The data set can be described thus: switch fluorescence ratio, 500 uM ATP over buffer (Cy3 cluster intensity, sum of 5 cycles each) (fold (ratio)); higher = stronger signal-on switching upon ATP binding; sequences stand for … in TCGTCGGCAGCGTCAGATGTGTATAAGAGACAGTTTTTTTTTTTTTTTTTTTTTTTTT…TC. As to conditions: aptamer strand: ATP DNA aptamer (quencher-CACCTGGGGGAGTATTGCGGAGGAAGG + anchor), 100 nM annealed; ATP concentration: 500 uM; one replicate. In a few lines: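 The quencher-labelled ATP aptamer, at 100 nM, was annealed to Cy3-labelled switching-strand clusters on a modified Illumina MiSeq flow-cell. The clusters were imaged in selection buffer, then after 15 min with 500 uM ATP at 22 °C, and this buffer/ATP cycle ran five times with NaOH stripping and re-annealing between runs. Per-cluster fluorescence ratios, summed target-cycle over summed buffer-cycle Cy3 intensity, were averaged per switch-domain sequence. Clusters outside 100-1000 RFU were excluded.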
On to CTACATGGTC, for which the switch fluorescence ratio was 1. In the case of ACTGACTGCT, the switch fluorescence ratio worked out at 1.11. In the case of CGCGTCAAC, the switch fluorescence ratio is 1.45. For AGGGTCGGGT the value was 0.974; for TTCAGGCAAT, 1.03.

For the sequence CCTGTGGTTA, the switch fluorescence ratio was 0.993. Turning to CTAGTTCTAT, the switch fluorescence ratio was 0.981. With GGGTCAACAC, the switch fluorescence ratio came out at 1.07. The same measure for TAGTGTTCAC: 0.96; for GTCATATATT: 0.989; for TAAAGTCCTG: 0.975.

Turning to CCCTAACATC, the switch fluorescence ratio is 1.05.

For the sequence TAGACAGAAC, the switch fluorescence ratio worked out at 1.06. With AGTCGGCTAA, the switch fluorescence ratio came out at 0.957. For the sequence ATCTCTACTC, the switch fluorescence ratio came to 1.02. CTGGAGAAGG: the switch fluorescence ratio is 1.01. On to GCGTCGCGGG, for which the switch fluorescence ratio was found to be 0.995. For CGAATACGCG the value was 1.04; for TGGAATTATG, 1.02. Turning to AGCGACAGCT, the switch fluorescence ratio is 0.997. As for GACTGGCTAT, the switch fluorescence ratio was determined as 1.01. For CCTGAGGTCA the value was 0.982; for TTCACCGCCG, 1.08; for ATGCCAACCA, 1.01.

With GTTACTACTT, the switch fluorescence ratio was 0.994. Regarding CTCGTCTCTG, the switch fluorescence ratio stood at 0.981. As for ACTGTCATCG, the switch fluorescence ratio was found to be 1.09. With ATCTATCCAG, the switch fluorescence ratio stood at 0.979. TAAGGAGTT: the switch fluorescence ratio came to 0.896. The same measure for AAAAACCTTG: 1.05; for ATGGGTCCTT: 1.04. For CCCGTATACG, the switch fluorescence ratio stood at 1.1. With TGTAAGTTGT, the switch fluorescence ratio was found to be 1.02.

For AGCCCCTGGA, the switch fluorescence ratio is 1.02. Turning to ATCTCATGTG, the switch fluorescence ratio came to 0.997.

On to GACTCCAGAA, for which the switch fluorescence ratio stood at 1.33. For TCGGATTGCT, the switch fluorescence ratio is 0.951. For ATTAATTGTA the value was 1.01; for TGCCGGTGAG, 0.963. On to AACGATCCGG, for which the switch fluorescence ratio came to 0.993.

In the case of TGCCTAGTTG, the switch fluorescence ratio is 1.03.

As to AGCAATCCAT, the switch fluorescence ratio is 1.21.

For GCGGACTAGG, the switch fluorescence ratio worked out at 0.967.

Regarding TTAGGGTGA, the switch fluorescence ratio was 0.989. As to TAATTGTTCC, the switch fluorescence ratio worked out at 1.03. Regarding CAAATGGAGG, the switch fluorescence ratio was 0.995. For GAAGTCAGTA, the switch fluorescence ratio worked out at 1.04.

Regarding AGCATGGAA, the switch fluorescence ratio was determined as 1.01. The same measure for CCCTCTGTCT: 1.03. Turning to TTGACTGCTG, the switch fluorescence ratio worked out at 0.974.

As to TCTAGTACAG, the switch fluorescence ratio stood at 1.02. For TAGGCTTGAG the value was 0.966; for GATACGGACC, 1.59.

With GCACTGTATA, the switch fluorescence ratio was determined as 1.2. With GGTTATCGGG, the switch fluorescence ratio worked out at 0.986. For ACTCTTGTGA the value was 1.02; for CACCTTCCGA, 1.95. The same measure for ACATAAATAC: 1.38; for GGAATGTGTG: 0.985. Regarding TAAGTGGCAC, the switch fluorescence ratio was determined as 1.01.

As for CTTGCACCCG, the switch fluorescence ratio is 1. With GAGCCAAACG, the switch fluorescence ratio stood at 0.996. For GGTAGAAACG the value was 0.968. As for CCGTGTGATC, the switch fluorescence ratio was 1.07. With CCTGAAATGT, the switch fluorescence ratio was 1.12.

As to AAACGTCATG, the switch fluorescence ratio was 1.05. Consider CACCGATAGC, for which the switch fluorescence ratio was found to be 1.47. The same measure for TGGAATTATT: 0.966; for GTAGAGTGTT: 0.982. For ATCGATGGAG the value was 1.01; for CACGATCCAT, 0.986; for CCTGTGCTGG, 1.31. As for GAAATGACCA, the switch fluorescence ratio is 0.954.

For TAGGGAATGG, the switch fluorescence ratio worked out at 1.06. Turning to AGGGCAACGT, the switch fluorescence ratio is 1.

Take TACTTTATAG: the switch fluorescence ratio is 0.99. On to TTCGCTTTAA, for which the switch fluorescence ratio was determined as 1.04. Turning to GAGCGCGAAT, the switch fluorescence ratio came to 0.956. For TCCTTGTATA the value was 1.06.
